Reference: PubChem BioAssay AID686979 (National Center for Advancing Translational Sciences (NCATS), 2013)
Where “and” joins values, the source holds several entries; their conditions need not be identical. Equal entries are not always repeated. Screen size: about 420,000 compounds; about 50,000 (12%) were called active. This list was built around the results that the source calls inconclusive (neither active nor inactive); the mix of calls is not that of the screen. The call rests on the fitted dose curve; in most records, active means well fitted inhibition curve with a large enough effect; inconclusive means small, poorly fitted or top-dose-only effect; inactive means flat fitted curve, though single readings scatter. Where the call is inconclusive, the potency comes from a doubtful curve fit.

Assay: qHTS for Inhibitors of human tyrosyl-DNA phosphodiesterase 1 (TDP1): qHTS in cells in presence of CPT; further: nearly all actives have a fitted effect of over 55% in size
Details: chicken DT40 Tdp1-/-;hTDP1 cells + 20 nM CPT, ATP luminescence, 48 h; activity change, negative = growth inhibition: at 46.2 µM (top of the series) unless noted
How it was run: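 Chicken DT40 Tdp1-/- cells complemented with human TDP1, 400 cells/well, exposed to compounds plus 20 nM camptothecin for at least 48 h at 37 C; viability read as ATP content by CellTiter-Glo luminescence.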
On the % scale 0 is the no-effect control and ±100 the full control effect; potency means the concentration at half of the fitted maximal effect; tags describe the fitted curve by direction and shape.

SMILES | Potency | activity change, negative = growth inhibition
O=C(Cn1cnc2c(nnn2Cc2ccc(Cl)cc2)c1=O)OCc1ccccc1 | inconclusive: 29.1 µM [inhibitor, single point] | 
O=C1c2ccccc2S(=O)(=O)c2cc(N3CCN(c4ccccc4)CC3)ccc21 | inconclusive: 16.4 µM [inhibitor, single point] | 
CCCCNC(=O)CCn1c(=O)c2cccn2c2ccc(F)cc21 | inactive and inconclusive: 29.1 µM [inhibitor, single point] | 
CCN(CC)C(=O)C1CCCN(c2ccc([N+](=O)[O-])cc2/C=N/NC(=O)c2cccc([N+](=O)[O-])c2)C1 (centres undefined) | active: 20.6 µM | 
O=C(CSc1nnc(-c2ccccn2)o1)Nc1ccccc1Cl |  | inactive: -11.5%
C=CCNC(=O)c1cc(-c2ccccc2O)on1 |  | inactive: -22.6%
CC(NC(=O)c1cc2sccc2n1Cc1ccc(F)cc1)c1ccccc1 (centres undefined) | inconclusive: 23.1 µM [inhibitor, single point] | 
Nc1cccnc1Sc1ccc([N+](=O)[O-])cn1 |  | inactive: 20.2%
O=S1(=O)CCOC[C@H](CC2CCCCC2)N1Cc1cccc(C(F)(F)F)c1 | inconclusive: 25.1 µM [inhibitor, single point] and inconclusive: 20.6 µM [inhibitor, single point] | 
O=C(Cn1c(C(=O)N2CCN(C3CCCCC3)CC2)cc2sccc21)c1ccccc1 | inconclusive: 29.1 µM [inhibitor, single point] | 
CCOC(=O)c1nn(-c2ccc(Cl)cc2)cc1O | inconclusive: 29.1 µM [inhibitor, single point] | 
CCCCc1nnc2c(N(C)S(=O)(=O)c3ccc(C)cc3)nc3ccccc3n12 |  | inactive: -27.3%
CCOc1ccc(NC(=O)CN(C)C(=O)c2ccc(N3CCCCCC3)c([N+](=O)[O-])c2)cc1OCC | inconclusive: 29.1 µM [inhibitor, single point] | 
CCOC(=O)c1sc(NC(=O)COC(=O)C(CCSC)NC(C)=O)nc1C (centres undefined) |  | inactive: -7.68%
COC(=O)c1cccc(N2CCCC2=O)c1 |  | inactive: -7.52%
CC1=C(C(=O)OCC2CCCO2)C(c2ccc(Cl)c(Cl)c2)NC(=O)N1 (centres undefined) | inconclusive: 14.6 µM [inhibitor, partial curve] | 
COc1cc(OC)c(OC)cc1CN1CCN(S(=O)(=O)c2ccc(F)cc2)CC1 | inconclusive: 29.1 µM [inhibitor, single point] | 
CC(=O)N1C(=O)C2(C(C#N)=C(N)Oc3n[nH]c(-c4ccccn4)c32)c2ccccc21 (centres undefined) | inconclusive: 18.4 µM [inhibitor, single point] | 
CCOc1ccc(NS(=O)(=O)c2cc(NC(=O)C3CC3)ccc2C)cc1Br | inconclusive: 29.1 µM [inhibitor, single point] | 
O=C(CSCc1ccccc1)Nc1ccc2c(c1)OCO2 |  | inactive: -22.8%
Cn1c(=O)oc2cc(S(=O)(=O)Nc3ccccc3)ccc21 | inconclusive: 16.4 µM [inhibitor, single point] | 
Oc1cccc(NC(=S)N=Nc2c(O)[nH]c3ccccc23)c1 | inconclusive: 23.1 µM [inhibitor, single point] | 

SMILES | Potency | activity change, negative = growth inhibition
CCc1cccc(C)c1NS(=O)(=O)c1ccc(-n2cccn2)cc1 | active: 16.4 µM | 
COc1ccccc1CNC(=O)CN1c2cccc3cccc(c23)S1(=O)=O |  | inactive: -1.35%
COc1ccc(C)cc1S(=O)(=O)N1CCN(C)CC1c1ccccc1 (centres undefined) | inconclusive: 16.4 µM [inhibitor, single point] | 
COC(=O)N(NC(=O)C(O)(c1ccccc1)c1ccccc1)c1ccccc1 |  | inactive: -24%
COc1ccc(Br)cc1CNC(=O)C1CCCN(S(=O)(=O)N2CCC(C)CC2)C1 (centres undefined) | inconclusive: 25.9 µM [inhibitor, single point] | 
O=C(C[C@@H]1C/C=C\CC[C@H](Cc2ccc(F)cc2)C(=O)OC[C@@H]2CCCN2C1=O)N[C@H](CO)Cc1ccccc1 | active: 6.51 µM | 
CCCOc1ccc(F)cc1-c1cc(C(=O)Nc2ccc(C(C)C)cc2)[nH]n1 | inconclusive: 25.9 µM [inhibitor, partial curve, poor fit] | 
CC(OC(=O)c1cccnc1)C(=O)Nc1ccc2c(c1)OCO2 (centres undefined) | inconclusive: 16.4 µM [inhibitor, single point] | 
Cc1cc(C(=O)CSc2nnc(-c3cccc(F)c3)n2N)c(C)n1Cc1ccc2c(c1)OCO2 | active: 14.6 µM | 
Cc1nc(CS(=O)c2ccc(Cl)cc2)cc(NCc2ccc(Cl)cc2Cl)n1 (centres undefined) | active: 14.6 µM | 
Cc1cc(C)nc(N2CCCC(C(=O)Nc3nnc(C(C)(C)C)s3)C2)n1 (centres undefined) | inconclusive: 29.1 µM [inhibitor, single point] | 
NS(=O)(=O)c1ccc(NC(=O)Nc2cccc3ccccc23)cc1 |  | inactive: 5.16%
COc1ccc([C@H]2/C=C\CN(S(=O)(=O)c3ccc(C)cc3)[C@@H](C)C(=O)N2Cc2ccc(F)cc2)cc1 | active: 18.4 µM | 
CC1=C(C(=O)N(C(C)C)C(C)C)CC(CC(=O)NCCN2CCOCC2)C(=O)N1Cc1ccc(C(C)(C)C)cc1 (centres undefined) | inconclusive: 29.1 µM [inhibitor, single point] | 
CN(C(=O)c1cc2c(s1)-c1ccccc1S(=O)(=O)C2)c1ccccc1F |  | inactive: -22.6%
Cc1ccccc1C(=O)Nc1ccc(C(=O)N/N=C/c2ccc(O)c(Br)c2)cc1 | inconclusive: 29.1 µM [inhibitor, single point] | 
CN1C(=O)C(C)(C)c2cc(S(=O)(=O)N3CCN(c4ccccc4)CC3)ccc21 | inconclusive: 0.0052 µM [inhibitor, full curve, poor fit] | 
CC(C)Sc1nc2c([nH]1)c(=N)ncn2Cc1ccccc1 |  | inactive: 9.23%
CCOc1ccc(N2C(=O)CC(N3CCN(c4ccc([N+](=O)[O-])cc4)CC3)C2=O)cc1 (centres undefined) | inconclusive: 29.1 µM [inhibitor, single point] | 
CC(=O)Nc1nc2ccc(NC(=O)c3ccco3)cc2s1 | inconclusive: 25.9 µM [inhibitor, single point] | 
COc1ccc([C@@H]2C[C@H](c3ccccc3)Oc3cc(C)cc(C)c32)cc1 |  | inactive: -11.6%
CCOC(=O)C1=CC[C@@H](c2cccc(Br)c2)N(S(=O)(=O)c2ccc(F)cc2)[C@H]1c1cccc(Cl)c1 | active: 20.6 µM | 
